The record followed here is PubChem BioAssay AID2006 (Sanford-Burnham Center for Chemical Genomics, 2009).

Each structure is given as a SMILES string. The list shows a part of the results. Shown are side measurements of this screen, not its main read-out; they come without a call.

This experiment has as its target SUMO-conjugating enzyme UBC9 (Homo sapiens) (UniProt P63279). Put plainly: blockers of SAE1/SAE2–UBC9 SUMO transfer – biochemical, HTRF, uHTS, primary screen (AID 2006). To be noted: HTRF SUMOylation assay, SAE1/SAE2 + UBC9, in vitro; average of repeat tests; at 35 µM; stronger effect = higher value. (In TR-FRET formats the signal depends on donor and acceptor labels being close together.)
Sequence of UniProt P63279 (P63279 whole entry, looked up): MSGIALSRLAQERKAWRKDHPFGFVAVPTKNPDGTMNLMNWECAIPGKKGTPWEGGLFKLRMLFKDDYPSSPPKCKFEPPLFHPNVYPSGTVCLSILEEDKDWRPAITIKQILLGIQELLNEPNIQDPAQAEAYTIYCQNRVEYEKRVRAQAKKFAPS
One may read the inhibition as the drop in the measured response relative to a control, in per cent. With `c1cc(Nc2ncnc3sc4c(c23)CCC4)ccn1`, the inhibition worked out at 44.1%.
As for `COc1ccc(NC(=O)CN2C(=O)S/C(=C/c3cccn3-c3ccc(C(=O)O)cc3)C2=O)cc1`, the inhibition worked out at 62.1%.
The result for `COc1ccc(C)c2sc(NC(=O)c3cccc(N4C(=O)CCC4=O)c3)nc12` reads 45.8%.
The same measure for `C=CCn1c(N)c(C(=O)OC(C)(C)C)c2nc3ccccc3nc21`: 36.9%.
The result for `Nc1ccc(-c2nc3ccc(N)cc3[nH]2)cc1` reads 61.1%; that for `COc1ccc(-c2cc(C(F)(F)F)n3ncc(C(=O)NCc4ccco4)c3n2)cc1`, 61.9%; that for `O=C(/C=C/c1ccco1)NC(=S)Nc1cc(-c2nc3ccccc3s2)ccc1Cl`, 45.6%.
For `Cn1c2ccccc2c(=O)n2c(=O)c3ccccc3cc12`, the inhibition amounted to 59.2%.
The same measure for `CCN(CC)C(=O)COc1ccc2oc(-c3ccco3)cc(=O)c2c1`: 53.5%; for `Cn1c(-c2ccc(C=O)s2)nc2ccccc21`: 55.1%.
The same measure for `COc1ccc(C2=NN(C(=O)c3cccs3)C(c3ccccc3O)C2)cc1` (stereo not drawn): 34.3%; for `CC(=O)NC1C(=O)N(CCN2CCOCC2)c2ccc(Br)cc21` (stereo not drawn): 83.5%.
Take `O=C(Nc1ccccc1-c1nc2ccccc2s1)c1cccnc1Cl`: the inhibition is 65%.
The result for `O=C1N(c2ccc(Cl)c(Cl)c2)CN(Cc2ccccc2)CN1n1cnnc1` reads 48.3%; that for `Cc1ccc(NC(=O)Nc2ccno2)cc1`, 80.1%.
The same measure for `O=C(c1ccc2c(c1)[nH]c(=S)n1c3ccccc3nc21)N1CCN(c2ncccn2)CC1`: 48.9%.
The same measure for `CCOc1ccc(C2C=C(c3ccccc3)Nc3ncnn32)cc1` (stereo not drawn): 52.5%.
Turning to `O=C(Cn1c2ccccc2c(=O)c2ccccc21)N/N=C/c1cc([N+](=O)[O-])ccc1N1CCCCCC1`, the inhibition was 50%.
The result for `Cn1c(C(=O)N2COCC2(C)C)cc2c(=O)n3ccccc3nc21` reads 58.6%.
As for `COc1ccc2nc(-c3ccco3)c(-c3ccco3)nc2c1`, the inhibition stood at 36.7%.
Regarding `O=C1C=C(Nc2ccccc2)c2ccccc2C1=O`, the inhibition was 34.2%.
The result for `Cc1ccsc1C=Nc1ccc(O)cc1` reads 42.4%; that for `O=C(NC1(O)C(=O)c2ccccc2C1=O)c1ccc(C(F)(F)F)cc1`, 93.7%; that for `C/C(=N\NC(=O)c1cc(O)cc(O)c1)c1ccc(NC(=O)Cc2ccccc2)cc1`, 81%.
As for `N=C1/C(=C\c2ccc(SCc3ccco3)o2)C(=O)N=C2SC=NN12`, the inhibition stood at 41.1%.
For the compound `Cc1cc(/C=C2\C(=N)N3N=C(c4ccco4)SC3=NC2=O)c(C)n1Cc1ccccc1`, the inhibition is 39.5%.
The same measure for `O=C(O)/C=C/c1cn(-c2ccccc2)nc1-c1cc2ccccc2o1`: 47.5%; for `Cc1oc2c(c(C)cc3oc(=O)c(CC(=O)NCC(=O)NCC(=O)O)c(C)c32)c1C`: 54.4%.
The result for `Cc1ccc(NC(=O)CN2C(=O)N/C(=C/c3cccn3-c3ccc(C(=O)O)cc3)C2=O)cc1` reads 84.3%; that for `O=S(=O)(c1ccc2nc(-c3ccco3)c(-c3ccco3)nc2c1)N1CCOCC1`, 36%.
As for `O=c1c2ccccc2oc2cc(NCCCN3CCOCC3)ccc12`, the inhibition was 59.2%.
For the compound `CC(=O)Oc1ccc2cc(-c3nc4ccccc4n3C)c(=O)oc2c1`, the inhibition was 46.4%.
The result for `CN(C)c1cccc2c(S(=O)(=O)N3CCCC3)cccc12` reads 42.1%.
As to `CCCN(C(=O)c1cc2c(s1)CCC2)c1c(N)n(Cc2ccccc2)c(=O)[nH]c1=O`, the inhibition stood at 37.1%.
The result for `Cc1oc2c(c(C)cc3oc(=O)c(CC(=O)N[C@H](C(=O)O)C(C)C)c(C)c32)c1C` reads 59.6%.
`Cc1c(C(=O)Nc2ccc(F)cc2)cn2c(nc3ccccc32)c1C#N`: the inhibition is 53%.
The result for `Cn1nccc1NC(=O)Nc1cccc(Cl)c1` reads 73.8%.
For the compound `Cc1ccc(-c2cc(-c3ccccc3O)nc(N/N=C/c3cccnc3)n2)cc1`, the inhibition was 67.5%.
Take `COc1ccc2oc(=O)c(C(=O)NCC3CCCO3)cc2c1` (stereo not drawn): the inhibition came out at 43.4%.
With `Cc1nn2cc(-c3ccccc3)nc2[nH]c1=O`, the inhibition came out at 63.9%.
The same measure for `COc1cc2c(cc1OC)-c1cc3ccc4c(c3c[n+]1CC2)OCO4`: 33.1%; for `CC1CCN(Cc2cc(=O)oc3cc(O)c(Cl)cc23)CC1`: 57.2%.
The same measure for `COc1cc(/C=C2\C(=O)N(c3ccc(S(N)(=O)=O)cc3)N=C2C)ccc1OC(=O)c1ccco1`: 32.7%; for `CCc1ccc(S(=O)(=O)/N=C2\C=CC(=O)c3ccccc32)cc1`: 54.1%.
For the compound `CN(C)/C=N/c1nc2nccc(-c3ccc(F)cc3)n2n1`, the inhibition turned out to be 42%.
For `O=c1[nH]c(=S)[nH]c(O)c1N=Nc1ccc(-c2ccccc2)cc1[N+](=O)[O-]`, the inhibition came out at 63.9%.
`O=C(NN1C(=O)/C(=C/C=C/c2ccco2)SC1=S)c1ccncc1`: the inhibition was 44.5%.
The same measure for `COCCCn1c(C(=O)N2CC(C)OC(C)C2)cc2c(=O)n3ccccc3nc21` (stereo not drawn): 54.4%.
With `Nc1c(C(=O)NCc2ccco2)c2nc3ccccc3nc2n1CCc1ccc(F)cc1`, the inhibition was determined as 57%.
As to `COc1cc(Br)c(C(=O)c2nccc3cc(OC)c(OC)cc23)cc1OC`, the inhibition turned out to be 35.6%.
The same measure for `O=C(Nc1ccc(Br)cc1)c1ccc(N2C(=O)C3CC=C(Cl)CC3C2=O)cc1` (stereo not drawn): 36.6%.
The same measure for `CCOc1ccc(-n2c(SCC(=O)Nc3ccc(CC)cc3)nc3n[nH]c(C)c3c2=N)cc1`: 47.8%; for `Cn1nccc1NC(=O)Nc1cccc(Br)c1`: 77.7%; for `Cc1cc(NCCO)c2cc(O)ccc2n1`: 60.9%.
Take `CN(C)C=Nc1ccc2nc3c(cc2c1)[nH]c1ccccc13`: the inhibition amounted to 55%.
As to `CCOC(=O)Cn1c2ccccc2c2nc3ccccc3nc21`, the inhibition came to 46%.
The same measure for `CN(C)c1cccc(C(=O)OCc2cc(=O)oc3cc(O)ccc23)c1`: 41.8%; for `COc1ccc(/C=C(\C#N)C(=O)OCC(=O)NCc2ccccc2Cl)cc1`: 38.3%; for `Cc1ccc(C(=O)O)cc1-c1ccc(/C=C2\SC(=O)N(CC(=O)Nc3ccc4c(c3)OCO4)C2=O)o1`: 77.8%.
The same measure for `N#Cc1c2nc3ccccc3nc2n2cc(NC(=O)c3ccc(F)cc3)ccc12`: 64.1%; for `O=C(Nc1cccc2nsnc12)c1ccc(-c2cccc(Cl)c2)o1`: 35.9%; for `CN(CCO)c1nc(N)c2c(N)nc3c(c2c1C#N)CC(=O)N3C1CCCC1`: 35.1%.
For the compound `O=C(O)c1ccc(/C=N/NC(=O)c2ccc(CN3c4cccc5cccc(c45)S3(=O)=O)cc2)cc1`, the inhibition came to 47.1%.
For `COc1ccccc1C(=O)Nc1sc2c(c1C(=O)NCc1ccco1)CCCC2`, the inhibition is 50%.
The result for `O=C(/C=C/c1cccs1)Nc1scc(-c2ccccc2)c1C(=O)O` reads 88.7%; that for `CN1CCCc2cc3c(C(F)(F)F)cc(=O)oc3nc21`, 66.4%; that for `Cn1c(C(=O)NCC2CCCO2)cc2c(=O)n3ccccc3nc21` (stereo not drawn), 59.5%.
As for `Cc1c(N2C(=O)c3ccc4c5c(ccc(c35)C2=O)CC4)c(=O)n(-c2ccccc2)n1C`, the inhibition is 80.9%.
